This is an account of results in PMC12136788.

B1: chr6:29525140:29525141:-_ENSMUSG00000012535_ENSMUST00000012679|mus_hu|motif|central (ssRNA)
RNA: GGGAGUUCUACAGUCCGACGAUCGUUAGUUUUGUACAAAUGUUCCCCCAGUCGGUACCAAAAGUUAAAUGAAAUUUCGGCGGCCUCAUAUUGAGGAUGGCCUGCACAGAUAAGCAGCAGCUCCAGAGUUCGAAGGUCCCCAAGCAACAGAGGAUUGAGCAUCA
B2: chr1:185276735:185276736:-_ENSG00000116679_ENST00000392007|hu_hu|FALSE|FALSE (ssRNA)
RNA: GGGAGUUCUACAGUCCGACGAUCGAAUAUAAGCAUCAACCUUAUUCAACAAACGGGAGUCUCCCAUACAACUUGCAAAAUUUCGGUAAGAGAUGCAGCUGGUAACAUCCAUUCUAGACAGUAAAUAAUCACCACAAACCUGCUCAACAGAGGAUUGAGCAUCA
B3: chr12:7074771:7074772:-_ENSG00000215021_ENST00000535923|hu_hu|FALSE|FALSE (ssRNA)
RNA: GGGAGUUCUACAGUCCGACGAUCCAGGGAACCGGUGUGGGGGACCAUCGCAUGAUACUGGGGCGGGGUAGGGCUGUGCUGGACCCCUGGCUGGCUCCUCAAAAACUGGAGAAGCAGAUCCACUUCCUCUGGGGGUGGAGUUCUCAACAGAGGAUUGAGCAUCA
B4: chr14:78183846:78183847:+_ENSG00000119705_ENST00000557342|hu_hu|hu_hu_hu_mus_False|28_58 (ssRNA)
RNA: GGGAGUUCUACAGUCCGACGAUCUCUCAGAAAUCUUUCUUCAUCAGAUGUUUGAGCUCCGUGCAAAGCCUUUGCUCUUCUAGUGUGAACGUGGAUCUAUGGGAGGGCUAUAAUAUGCAGAAAAGGUAAUUUUUUUUUUAAAGACAACAGAGGAUUGAGCAUCA
B5: chr13:94999761:94999762:-_ENSMUSG00000021687_ENSMUST00000022197|perfect_dup|FALSE|FALSE (ssRNA)
RNA: GGGAGUUCUACAGUCCGACGAUCUUCUACAGGAAUGUCUACAGAAAAAUCCUGAUAGAAACAAGGUCCGACAGGAAAAUUGCUAGGAAGAGGUGGCCAAUUAUUUUUUCUACCAUGUUGACUGAGGUUUUGCAUUUCUCGUUCCAACAGAGGAUUGAGCAUCA
B6: chr2:113333244:113333245:+_ENSG00000125630_ENST00000417433|hu_hu|motif|central (ssRNA)
RNA: GGGAGUUCUACAGUCCGACGAUCAACAUCAAGUUAAACAACAUCCAGUUUCACUUUGAUGUUCAUAGCUGCCAGUUCAGCGGCAAAAUACCGAAAAACAUAAGGCACAGAAACAGUAUCGAUAGUGUCACUGCGACUACACAGCAACAGAGGAUUGAGCAUCA
B7: chr16:47694578:47694579:+_ENSG00000102893_ENST00000566044|hu_mus|motif|central (ssRNA)
RNA: GGGAGUUCUACAGUCCGACGAUCCUCAGGAGCAUCUGCGGUACUGCUCUGCCGUUUGACUUUUGAAUGCUUAGGAAAUUCGGGUUCUUCAAAGCUCUUAAAUUCUGGAAGCUUUUCUGUGUCACUAAUUCGUAGAAAGUCAAGCAACAGAGGAUUGAGCAUCA
B8: chr9:95013113:95013114:-_ENSG00000196305_ENST00000443024|hu_hu|hu_hu_hu_mus_False|28_68 (ssRNA)
RNA: GGGAGUUCUACAGUCCGACGAUCCUCAGUCAGAAAGGGCGUGUAAGGGGCCAUCAGUCUGCACAGAGAAAGCAGAACACUGAACAGUGUCUCCAGAGCCAUGACACAAUCCUCCAUCCCACUCUCACCCUUUAACCUCCUCCUCAACAGAGGAUUGAGCAUCA
B9: chr7:141445308:141445309:+_ENSG00000106028_ENST00000265304|hu_hu|hu_hu_hu_mus_False|18_38 (ssRNA)
RNA: GGGAGUUCUACAGUCCGACGAUCUAUGAUUGUUGUUGCUUGCCGCCUCACAUUGUUUUUAUCCAUGUACUCGCCAUAGUCCACUUUCCCUUCCACAUAAAUUCGAGCCCCCUUUUUCACAUAUUGAUAUGCCACAUCUCUGAGCAACAGAGGAUUGAGCAUCA
B10: chr1:45244325:45244326:+_ENSG00000142937_ENST00000396651|hu_mus|FALSE|FALSE (ssRNA)
RNA: GGGAGUUCUACAGUCCGACGAUCACACCUUUAUUACACUACACAUGAGGCUCAUUUGCCUUUCCGGGCUUUGAUCUUCCGCAGAUAGAACUCCAGCUCCUUGCCUUCGAGCACAUAGCCGUCUGCUCUGCCACACUGGCCUGGCAACAGAGGAUUGAGCAUCA
B11: chr3:123074269:123074270:-_ENSMUSG00000028114_ENSMUST00000029759|perfect_dup|motif|central (ssRNA)
RNA: GGGAGUUCUACAGUCCGACGAUCGCGUCUUCUACCAAGACAAAAAUGUUCUAUUAUAUGAAAAAUUUCUACUGGUUUUUCGGUAUUGCCAAUCUCAGGUUCUUCUGUGAUAAUUAAGUCAAUGUCAACAUUAGCAUGAAUGAACAACAGAGGAUUGAGCAUCA
B12: chr22:19452774:19452775:-_ENSG00000070010_ENST00000399523|hu_hu|hu_hu_hu_mus_False|48_78 (ssRNA)
RNA: GGGAGUUCUACAGUCCGACGAUCCUUCUCAUUGUAGUUGAUAGCAAUCACAUCUCCGGUGGUCAGACAGGCGAAGUUUCUCAAUGCGUUUUCUAAUACCGCUUUAGGGUUGGUAAUAUCCAGGAAGUCUGGGCUCUGAGGCUGCAACAGAGGAUUGAGCAUCA
B13: chr7:878492:878493:+_ENSG00000164828_ENST00000456758|hu_hu|FALSE|FALSE (ssRNA)
RNA: GGGAGUUCUACAGUCCGACGAUCGUCGGCACCCACAGCCUCACCAUCCCCCAGGGUGCAUGCUGUCGUGGCCAGGCGCAAACUACGGCGGGACAUCCGUGGAGAAUCAAAUACAGGGUCCAAUUUGUGCUCCGUCUCAAAAUCCAACAGAGGAUUGAGCAUCA
B14: chr1:66463027:66463028:+_ENSMUSG00000015222_ENSMUST00000114013|mus_mus|mus_mus_mus_hu_True|18_28 (ssRNA)
RNA: GGGAGUUCUACAGUCCGACGAUCUUUUCUUUCAGGAGUGGAAAUUCUGCCUCUCCCGGUUUUAAAAGGCUUUUCUUUUCUAUGUUUCUCAAGAGAUGAUCUCCGAGCAUCCUUCUCAGCUCUCUCCUCUUUAGGAAUAGUUUCCAACAGAGGAUUGAGCAUCA

The other results are listed elsewhere or left out.

This assay concerns the target T1, UNK ZnF1-3 (human, UniProt Q9C0B0 31-174).
T1 sequence: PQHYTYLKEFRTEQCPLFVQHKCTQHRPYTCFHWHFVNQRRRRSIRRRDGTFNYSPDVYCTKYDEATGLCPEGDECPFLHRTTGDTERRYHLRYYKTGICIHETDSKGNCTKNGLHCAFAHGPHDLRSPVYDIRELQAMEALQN
In words: nsRBNS (natural sequence RNA bind-n-seq); RBNS binding buffer (assumed for nsRBNS): 25 mM Tris pH 7.5, 150 mM KCl, 3 mM MgCl2, 0.01% Triton X-100, 500 ug/ml BSA, 20 U/ml SUPERase-In, 4 C; UNK is unkempt and MSI1 is Musashi-1; names of the RNAs are library labels; protein concentration not given here; high values mean tight binding.
In the case of B1, the binding signal came to 0.98 enrichment R.

B2 yielded a binding signal of 2.24 enrichment R.

Consider B3, for which the binding signal is 1.06 enrichment R.

With B4, the binding signal is 3.18 enrichment R.

Molecule B5 had a binding signal of 1.64 enrichment R.

Molecule B6 displayed a binding signal of 0.83 enrichment R.

Turning to B7, the binding signal was 0.894 enrichment R.

B8: the binding signal was found to be 1.46 enrichment R.

B9 showed a binding signal of 0.668 enrichment R.

In turn, B10 returned a binding signal of 0.902 enrichment R.

With B11, the binding signal was determined as 1.08 enrichment R.

As for B12, the binding signal turned out to be 0.947 enrichment R.

Molecule B13 showed a binding signal of 1.07 enrichment R.

B14 registered a binding signal of 0.525 enrichment R.
